# Reference: article PMC4336329 (PLoS ONE, 2015)
# The whole screen tested about 310,000 compounds, of which about 14,000 (4.5%) showed an effect of 50% or more. The effect is printed as a negative number. Some of the results follow. Where a SMILES comes first, the peptide text is derived from it. The star is where a group is joined. OBn = c1ccc(CO*)cc1
# Molecular target: human ether-à-go-go-related gene (hERG) potassium channel (human, UniProt Q12809)
# Experiment: primary screen, population patch clamp on CHO cells stably expressing hERG
# 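Also: peak tail current of the secondary pulse compared with the same well before compound.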
# Sequence of human ether-à-go-go-related gene (hERG) potassium channel (Q12809 whole entry, looked up): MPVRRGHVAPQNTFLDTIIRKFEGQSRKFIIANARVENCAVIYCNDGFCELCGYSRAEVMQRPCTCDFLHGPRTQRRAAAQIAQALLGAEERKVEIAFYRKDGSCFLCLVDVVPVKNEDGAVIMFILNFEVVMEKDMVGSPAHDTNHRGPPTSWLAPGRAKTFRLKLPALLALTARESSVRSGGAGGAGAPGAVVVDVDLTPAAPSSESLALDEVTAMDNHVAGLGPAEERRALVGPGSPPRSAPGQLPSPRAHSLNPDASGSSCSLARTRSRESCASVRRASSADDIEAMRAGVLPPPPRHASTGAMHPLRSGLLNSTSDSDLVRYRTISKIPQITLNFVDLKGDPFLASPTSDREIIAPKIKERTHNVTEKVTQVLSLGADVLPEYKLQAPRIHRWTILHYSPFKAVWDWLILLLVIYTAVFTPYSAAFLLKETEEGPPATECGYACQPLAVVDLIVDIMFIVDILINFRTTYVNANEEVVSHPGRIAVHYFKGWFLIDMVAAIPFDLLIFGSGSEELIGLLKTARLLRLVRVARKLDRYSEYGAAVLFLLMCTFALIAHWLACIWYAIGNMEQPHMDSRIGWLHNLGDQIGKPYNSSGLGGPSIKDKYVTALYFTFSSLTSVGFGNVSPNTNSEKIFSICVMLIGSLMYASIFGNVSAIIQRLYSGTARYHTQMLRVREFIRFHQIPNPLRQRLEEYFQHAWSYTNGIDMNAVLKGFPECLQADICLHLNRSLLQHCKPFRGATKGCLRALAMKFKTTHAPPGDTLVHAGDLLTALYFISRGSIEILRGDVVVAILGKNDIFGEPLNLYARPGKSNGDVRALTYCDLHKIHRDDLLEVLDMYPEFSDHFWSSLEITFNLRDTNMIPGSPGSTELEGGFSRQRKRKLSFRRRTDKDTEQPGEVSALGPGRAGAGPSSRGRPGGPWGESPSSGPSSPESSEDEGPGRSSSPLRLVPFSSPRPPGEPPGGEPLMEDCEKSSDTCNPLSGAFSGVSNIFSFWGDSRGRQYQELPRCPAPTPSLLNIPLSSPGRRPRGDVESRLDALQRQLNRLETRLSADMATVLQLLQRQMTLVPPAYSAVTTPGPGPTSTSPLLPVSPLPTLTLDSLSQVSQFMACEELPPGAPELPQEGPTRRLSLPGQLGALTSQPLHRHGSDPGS
row,Structure (SMILES),"hERG current change (%, negative = inhibition) at 10uM"
1,C=CCNc1nc(Nc2ccc([N+](=O)[O-])cc2)nc(OCC)n1,14.1%
2,CC(=O)c1cc(C(=O)N2CCc3c([nH]c4ccccc34)C2CC(C)C)[nH]n1 (stereo not drawn),-19.8%
3,COc1ccc(CSc2nncn2N)cc1[N+](=O)[O-],7.17%
4,O=C1N2CCSC2=NC1(NS(=O)(=O)c1ccccc1)C(F)(F)F (stereo not drawn),8.63%
5,Cc1c(Br)c([N+](=O)[O-])nn1C(C)C(=O)Nc1c(C)n(C)n(-c2ccccc2)c1=O (stereo not drawn),-12.8%
6,O=C(Nc1cccc(-c2csc(-c3ccccc3)n2)c1)c1cccs1,6.76%
7,COCCNC(=O)c1sc2ncn(CC(=O)Nc3ccc(C)c(Cl)c3)c(=O)c2c1C,10.5%
8,CCCOc1ccc(C(=O)NCC(c2ccco2)N(C)C)cc1OC (stereo not drawn),-8.42%
9,COc1ccccc1NC(=O)C1CCN(C(=O)c2ccco2)CC1,11.3%
10,Cc1ccccc1Cn1nc(C)c(NC(=O)c2noc3c2CC(C(C)(C)C)CC3)c1C (stereo not drawn),6.8%
11,C#CCOCCOCCOCCNc1nc(N2CCN(C(=O)C([C@@H](C)CC)n3cc(C(N)CC(C)C)nn3)CC2)nc(N2CCN(C(=O)[C@H](CCC(=O)O)n3cc(C(N)[C@H](C)CC)nn3)CC2)n1.Cl (stereo partly drawn),18.5%
12,Cc1cc2ncn(CCOc3ccccc3C#N)c2cc1C,-22.6%
13,CCC(C)C(NC(=O)C(N)CC(C)C)C(=O)NC(CCC(=O)OCc1ccccc1)C(N)=O.Cl (stereo not drawn) (H-Leu-Ile-Glu(OBn)-NH2; configuration not given here),0.556%
14,Cc1cc([N+](=O)[O-])ccc1NCc1ccc2ccccc2c1,9.83%
15,COc1ccc(Cl)cc1N1CC(C(=O)Nc2nccs2)CC1=O (stereo not drawn),-6.03%
16,Cc1[nH]n(-c2ccccc2)c(=O)c1S(=O)(=O)c1ccccc1,-19.2%
17,CCc1nc2ccccc2n1CC(=O)OCC(=O)N(CC(C)C)c1c(N)n(Cc2ccccc2)c(=O)[nH]c1=O,0.273%
18,COc1ccc(C(CNC(=O)c2ccc(S(=O)(=O)Nc3ccccc3F)cc2)N(C)C)cc1 (stereo not drawn),3.72%
19,Cc1ccc2c(COC(=O)c3c(C)noc3C)cc(=O)oc2c1,1.08%
20,COc1ccc(-c2nsc(SCC(=O)NCc3ccc4c(c3)OCO4)n2)cc1,17.4%
21,O=C(OCc1cc(=O)n2ccsc2n1)C1(c2ccc(Cl)cc2)CC1,-43.3%

row,Structure (SMILES),"hERG current change (%, negative = inhibition) at 10uM"
1,O=C(c1ccc(OC2CCN(Cc3ccccn3)CC2)cc1)N1CCCCO1,5.45%
2,CC(C)[C@H](NS(=O)(=O)/C=C/c1ccccc1)C(=O)OCC(=O)NC(N)=O,24.2%
3,CCn1c(C)[n+](CCOCC[n+]2c(C)n(CC)c3cc(Cl)c(Cl)cc32)c2cc(Cl)c(Cl)cc21.[I-],6.82%
4,O=C(NCCCn1ccnc1)c1ccncc1,-6.4%
5,O=C(Cc1ccccc1[N+](=O)[O-])NC1CCN(Cc2ccccc2)CC1,-1.68%
6,CCOc1ccc(N(C(=O)C2CCCO2)C2C=CS(=O)(=O)C2)cc1 (stereo not drawn),13.3%
7,Cc1ccc(-c2nc3ccccc3c(=O)n2-c2ccc(Br)cn2)cc1,-18.7%
8,Cc1ccc(-n2cc(CNCCCN3CCCC3=O)c(-c3ccc(F)cc3)n2)cc1,-72.1%
9,Cc1ccc(NC(=O)CCn2cnc3ccccc3c2=O)cc1Cl,-0.942%
10,O=C(NCc1nc(-c2ccc(C(F)(F)F)cc2)no1)Nc1ccc(F)cc1F,11.5%
11,CCCCCn1c(C(Cc2ccccc2)NC(C)=O)nc2ccccc21 (stereo not drawn),-15.5%
12,COc1ccc(/C=N/NS(=O)(=O)c2ccc(C)cc2)cc1OC(=O)c1ccc(C)cc1,18.2%
13,CC(Sc1nnc(-c2ccccc2F)n1C)C(=O)NC1CCCCC1 (stereo not drawn),-1.88%
14,Cc1cc2c(cc1S(=O)(=O)N1CCCCC1)OCC(=O)N2,1.14%
15,CCSP1(=S)N=C(N2CCOCC2)C(C#N)=C2CCCN21 (stereo not drawn),-8.29%
16,CCOCCCNC(=O)c1cc2c(=O)n3cccc(C)c3nc2s1,12.6%
17,CC(=O)Nc1ccc(S(=O)(=O)Oc2cccc(N3C(=O)C4CCCCC4C3=O)c2)cc1 (stereo not drawn),-15.3%
18,CC(=O)Nc1cccc(NC(=O)CSc2nn3c(=O)c(C)nnc3s2)c1,12.4%
19,Cc1ccc(OCC(=O)n2nc(C)cc2C)c(C)c1,10.2%
20,Cc1nn(C)c(C)c1S(=O)(=O)N(CC(=O)NC1CCCCCC1)c1ccc(C(C)C)cc1,-10.4%
21,Cc1ccn2cc(CNC(=O)c3cccs3)nc2c1,7.66%

row,Structure (SMILES),"hERG current change (%, negative = inhibition) at 10uM"
1,O=C(O)c1ccc(Cl)c(S(=O)(=O)Nc2ccccc2Cc2ccccc2)c1,16.4%
2,CC(O)C(NS(=O)(=O)c1ccc(Cl)cc1)C(=O)OCc1nnc(-c2ccccc2)o1 (stereo not drawn),-12.3%
3,O=C(CN(CC1CCCO1)C(=O)CNS(=O)(=O)c1ccc(F)cc1)NC1CCCC1 (stereo not drawn),4%
4,Cc1nnc2n1NC(c1ccc(Cl)cc1)C(C(=O)N(C)C1CCCCC1)S2 (stereo not drawn),-23.6%
5,N=c1c2c3c(sc2ncn1CCCO)CCCC3,-19.5%
6,Cc1nnc(NC(=O)C23CC4CC(C)(CC(C)(C4)C2)C3)s1,23.4%
7,c1ccc(CN2C3=NCCN3c3ccccc32)cc1,-39.5%
8,Cc1cc(C)cc(NS(=O)(=O)c2ccc3oc(=O)ccc3c2)c1,-48.2%
9,COC(=O)C1CSC(C(=O)OC)N1C(=O)CN1CCN(c2ccccc2)CC1 (stereo not drawn),13.2%
10,COc1ccc(/C=N/N=C2/NC(=O)C(CC(=O)NC(C)C)S2)cc1 (stereo not drawn),7.76%
11,Cc1cccc(NS(=O)(=O)c2ccc3c(c2)CCN3C(=O)CCC(=O)O)c1,23.1%
12,CCO.CN1CCC2(CC1)C1CN(C)CC=C1C(C#N)=C(N)C2(C#N)C#N.O (stereo not drawn),14.6%
13,O=C(Cc1ccccc1)NCC(=O)OCc1ccc([N+](=O)[O-])cc1,-36.6%
14,Cc1occc1-c1nnc(SCC(=O)N2c3ccccc3CCc3ccccc32)n1C,-5.31%
15,O=C(O)c1cccc(NC(=O)c2cn(-c3ccccc3)nc2-c2ccncc2)c1,14.4%
16,COC(=O)c1c(NC(=O)CN2CCOCC2)sc2c1CCC(C)C2 (stereo not drawn),-0.109%
17,COc1ccccc1C1C=C(c2ccc(C)cc2)Nc2nnnn21 (stereo not drawn),6.16%
18,CSCC[C@H](NS(=O)(=O)c1ccc(C)cc1)C(=O)N1CCC(C(=O)N[C@@H](C)C(=O)O)CC1,6.89%
19,CCOC(=O)Cn1c(CN2CCOCC2)nc2c1c(=O)[nH]c(=O)n2C,7.2%
20,COc1ccccc1N1CCN(C(=O)c2cc3c(-c4ccc(Cl)cc4)nn(C)c3s2)CC1,1.91%
21,COc1ccc2c(c1)CCc1c(C(=O)NCC(C)C)noc1-2,12.9%

row,Structure (SMILES),"hERG current change (%, negative = inhibition) at 10uM"
1,NC(=O)Nc1ccc(C(=O)OCC(=O)Nc2cccc(S(=O)(=O)NC3=NCCC3)c2)cc1,18.4%
2,O=C(NCCCN1CCCC1=O)c1cccc(S(=O)(=O)N2CCN(c3ccc(F)cc3)CC2)c1,-23.1%
3,CC(C)c1ccc2nc(N)sc2c1,-8.55%
4,O=C(c1n[nH]c2ccccc12)N1CCN(S(=O)(=O)c2ccc3ccccc3c2)CC1,-8.08%
5,COc1ccc(CC(=O)Nc2cc(S(=O)(=O)N3CCCCC3)ccc2N2CCN(C)CC2)cc1,-54%
6,Cc1ccc(N(C)S(=O)(=O)c2ccc(-c3ccc(=O)[nH]n3)s2)cc1C,13.7%
7,COc1cccc(NC(=O)C(c2ccccc2)N2CCNC(=O)C2)c1 (stereo not drawn),-7.23%
8,O=C1c2cc(S(=O)(=O)NCCCO)ccc2-c2ccc(S(=O)(=O)NCCCO)cc21,0.851%
9,O=C(CSc1nnc(Cc2cc(=O)[nH]c(=O)[nH]2)n1-c1ccccc1)NCC1CCCO1 (stereo not drawn),1.69%
10,CC(/C=C/c1ccc(O)cc1)=N/O,10.9%
11,Oc1cccc(Nc2nc(N3CCOCC3)nc(N3CCOCC3)n2)c1,8.76%
12,CCOc1ccc2[nH]c(=O)c(CN(Cc3cccs3)Cc3nnnn3C(C)(C)C)cc2c1,11.6%
13,COc1ccc(C(=O)c2sc3nc(-c4ccccc4)ccc3c2N)cc1,16.3%
14,CCOc1cc(/C=N/NC(=O)c2nnn(-c3nonc3N)c2C)ccc1OCc1ccc(F)cc1,13.4%
15,CC(C)CC(=O)N1CCN(S(=O)(=O)c2ccc(C3CCCCC3)cc2)CC1,0.76%
16,CC(=O)CCC(=O)NCCc1ccccc1F,-1.06%
17,O=C(c1ccc2c3c(cccc13)CC2)N1CCOCC1,10.5%
18,CC(C)(C)C(=O)Nc1c2c(nn1-c1ccc(F)cc1)CSC2,13.4%
19,C=CCNC(=S)N1CCc2c([nH]c3ccccc23)C1C (stereo not drawn),11.7%
20,CCOc1ccc(OCC)c(S(=O)(=O)N2CCOCC2)c1,10.4%
21,CCCC/C(C)=C/[C@@H](NP(=O)(c1ccccc1)c1ccccc1)c1ccccc1,-2.64%
